Results as given in PubChem BioAssay AID1963320 (National Center for Advancing Translational Sciences (NCATS), 2024).
Hit rate of the full screen: of about 1,300 compounds, about 560 (43%) were called active. So high a share suggests a set chosen from earlier hits. The inconclusive results got no clear call from the source; some entries with a clear call stand among them for comparison. Calls follow the shape of the dose curve; as a rule, active = well fitted inhibition curve with a large enough effect; inconclusive = small, poorly fitted or top-dose-only effect; inactive = flat fitted curve, though single readings scatter. Potencies beside an inconclusive call are fits to weak or partial responses and may not hold up.

What follows are compounds tested against Luciferin 4-monooxygenase (Photinus pyralis) (UniProt P08659) (assay: Firefly luciferase (FLuc-C-HiBiT) enzymatic inhibition screen - Functional assay). Settings: purified FLuc-C-HiBiT enzyme, luciferin luminescence; series mostly up to 32.7 µM.
In short: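 FLuc-C-HiBiT enzyme at 10 nM final, preincubated >30 min at room temperature with compounds, then 10 uM D-luciferin (KM) with 10 uM ATP. Luminescence imaged by CCD after 5-10 min; PTC124 control.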
Also: nearly all actives have a fitted effect of over 70% in size.
Potency is read from the fitted curve at half-maximal effect; tags tell the direction and shape of the fitted curve.

Chain of UniProt P08659 (P08659 whole entry, looked up): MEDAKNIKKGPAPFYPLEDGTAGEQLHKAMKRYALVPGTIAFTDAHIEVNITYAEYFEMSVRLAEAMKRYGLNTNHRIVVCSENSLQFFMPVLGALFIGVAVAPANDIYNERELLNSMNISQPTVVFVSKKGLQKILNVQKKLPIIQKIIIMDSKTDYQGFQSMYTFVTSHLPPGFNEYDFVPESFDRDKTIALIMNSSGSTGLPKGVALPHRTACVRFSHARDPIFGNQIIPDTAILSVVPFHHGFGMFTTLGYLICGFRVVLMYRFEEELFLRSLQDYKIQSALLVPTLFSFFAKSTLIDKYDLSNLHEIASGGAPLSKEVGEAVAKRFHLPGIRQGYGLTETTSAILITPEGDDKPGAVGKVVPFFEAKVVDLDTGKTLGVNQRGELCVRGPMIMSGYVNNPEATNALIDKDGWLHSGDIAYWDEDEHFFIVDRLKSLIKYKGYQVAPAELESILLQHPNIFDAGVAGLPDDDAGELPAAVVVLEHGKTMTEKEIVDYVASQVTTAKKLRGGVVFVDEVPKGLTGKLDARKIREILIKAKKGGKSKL

| Compound | Potency |
| --- | --- |
| Cc1ccc(C2Cn3nnc(C(=O)N4CCC(C(=O)NCc5ccccn5)CC4)c3CO2)cc1 (stereo not given) | inconclusive: 11.1 µM [inhibitor, partial curve] |
| O=C(Nc1ccccc1)c1nc2c(o1)CCN(Cc1ccc(F)cc1)CC2 | inconclusive: 18 µM [inhibitor, partial curve] |
| COc1ccc(C(=O)Nc2ccccc2-c2nc3ccccc3s2)c(OC)c1 | inactive |
| CCOc1ncccc1C(=O)OCC(=O)Nc1ccc(-c2nc3ccc(C)cc3s2)cc1 | inconclusive: 16 µM [inhibitor, partial curve] |
| O=C(c1cc(-c2ccc(F)cc2)nc2ccccc12)N1CCC(c2nc(C3CCOCC3)no2)C1 (stereo not given) | inconclusive: 9.89 µM [inhibitor, partial curve] |
| COc1ccc(-c2nc3ccccc3s2)cc1NC(C)=O | inconclusive: 6.24 µM [inhibitor, partial curve] |
| Cc1ccc2oc([C@H]3CCN(Cc4cccs4)C3)nc2c1 | inconclusive: 18 µM [inhibitor, partial curve] |
| CCc1ccc(-c2nc(CSCC(=O)NCc3ccc(C)cc3)c(C)o2)cc1 | inconclusive: 14 µM [inhibitor, partial curve, poor fit] |
| Cn1ccnc1CN1C(=O)CO[C@H](c2ccc(NC(=O)Nc3ccccc3)cc2)[C@H]1CO | inconclusive: 14 µM [inhibitor, partial curve] |
| COc1ccc(-c2cn3nc(SCC(=O)Nc4cc(C)cc(C)c4)ccc3n2)cc1 | inconclusive: 5.56 µM [inhibitor, partial curve] |
| COc1ccc(-c2noc(Nc3ccc(C)c(C)c3)n2)cc1 | inconclusive: 9.89 µM [inhibitor, partial curve] |
| Cc1cc(C)cc(NC(=O)C2CCN(C(=O)c3ncn4c3COC(c3ccccc3)C4)CC2)c1 (stereo not given) | active: 3.13 µM |
| O=C(NCc1ccc(F)cc1)Nc1cccc(-c2ccc(N3CCOCC3)nn2)c1 | active: 1.76 µM |
| CCOC(=O)c1ccc(NC(=O)CSc2nnc(CNC(=O)c3ccc(OC)cc3)n2CC)cc1 | inconclusive: 12.4 µM [inhibitor, partial curve] |
| O=C(Nc1ccc([C@H]2OCC(=O)N(C3CCOCC3)[C@@H]2CO)cc1)c1ccc(C(F)(F)F)cc1 | inconclusive: 12.4 µM [inhibitor, partial curve] |
| COc1cc(OC)cc(C(=O)Nc2cc(-c3nc4ccccc4s3)ccc2OC)c1 | inactive |
| OCC1CCN(c2ncnc3c2cnn3-c2ccccc2)CC1 | inconclusive: 12.4 µM [inhibitor, partial curve] |
| C[C@H](C(=O)NCCN1CCOCC1)C1CC[C@@]2(C)Cc3sc(-c4ccccc4)nc3[C@@H](C)[C@@H]2[C@H]1O (stereo not given in full) | active: 0.989 µM |
| COc1cccc(CN2CCNc3cc(Nc4cccnc4)ncc3C2)c1 | inconclusive: 18 µM [inhibitor, partial curve] |
| O=C(O)c1cccc2c1CCN2C(=O)c1ccc(F)cc1 | active: 1.76 µM |
| O=C1CC2(CCN(CC3CC3)CC2)Oc2ccccc21 | inconclusive: 18 µM [inhibitor, partial curve] |
| CCn1cc(-c2ccc(C)cc2)cc1C(=O)O | inactive |
| Cc1ccc(Cl)cc1-n1ncc2c(N3CCC(C)CC3)ncnc21 | inactive |
| O=C(CSc1ccc(F)cc1)Nc1ccccc1-c1nc2ccccc2s1 | inactive |

| Compound | Potency |
| --- | --- |
| CN1c2cc(C(=O)Nc3ccccc3)ccc2C(=O)N2CCCCC21 (stereo not given) | inconclusive: 12.4 µM [inhibitor, single point] |
| CCC(=O)N1CCc2ccc(C(=O)NC3CCCCC3)cc21 | inconclusive: 11.1 µM [inhibitor, partial curve] |
| COc1ccc2cc(C3CN(C(=O)CNC(=O)C(C)C)CCO3)ccc2c1 (stereo not given) | inconclusive: 12.4 µM [inhibitor, partial curve] |
| CC(C)Oc1ccc(C(=O)Nc2ccc(-c3nc4ccccc4s3)cc2)cc1 | inactive |
| CCc1ccc2nc(N3CCC(C(=O)O)CC3)sc2c1 | active: 0.0351 µM |
| O=C(NCc1ccccc1Cl)C1CCN(C(=O)c2ncn3c2COC(c2ccccc2)C3)CC1 (stereo not given) | inconclusive: 9.89 µM [inhibitor, partial curve] |
| CC1CCN(c2ncnc3c2cnn3-c2ccccc2)CC1 | active: 6.24 µM |
| COc1ccc(C(=O)Nc2cc(C(C)C)c(O)c(S(=O)(=O)c3ccc(Cl)cc3)c2C)cc1 | inconclusive: 12.4 µM [inhibitor, partial curve, poor fit] |
| CCOc1ccccc1C(=O)Nc1nc2c(s1)CC(C)CC2 (stereo not given) | active: 4.42 µM |
| CC(=O)c1ccc(NC(=O)CCc2c(C)nc3cc(-c4ccc(Cl)cc4)nn3c2C)cc1 | inconclusive: 7.85 µM [inhibitor, partial curve] |
| FC(F)(F)c1cc(-c2nc3ccccc3s2)cc(C(F)(F)F)c1 | inconclusive: 12.4 µM [inhibitor, partial curve] |
| COc1cccc(-n2cnc3c(N/N=C/c4ccncc4)ncnc32)c1 | inconclusive: 17.6 µM [inhibitor, single point] |
| CNC(=O)c1cccc(-c2cnc(Nc3ccccc3)c3c2CCO3)c1 | inconclusive: 18 µM [inhibitor, partial curve] |
| CN1c2cc(C(=O)Nc3cc(F)ccc3F)ccc2C(=O)N2CCCCCC21 (stereo not given) | inconclusive: 12.4 µM [inhibitor, partial curve] |
| Cc1ccc(NC(=O)C2CCN(C(=O)c3ncn4c3COC(c3ccccc3)C4)CC2)cc1 (stereo not given) | active: 1.76 µM |
| O=C(c1ccc(C(F)(F)F)cc1)N1CCc2nc(-c3ccccc3)nc(-c3ccc(Cl)cc3)c2C1 | inactive |
| CCN1c2cc(C(=O)Nc3ccc4c(c3)OCCO4)ccc2C(=O)N2CCCC21 (stereo not given) | inconclusive: 11.1 µM [inhibitor, partial curve] |
| CCc1cccc(NC(=O)c2cc(-c3ccc[nH]3)n[nH]2)c1 | inconclusive: 9.89 µM [inhibitor, partial curve] |
| O=C(O)c1ccccc1-c1noc(-c2ccccc2F)n1 | inconclusive: 15.7 µM [inhibitor, partial curve] |
| CCc1ccccc1NC(=O)c1cc2c(=O)[nH]c(C)cn2n1 | inconclusive: 15.7 µM [inhibitor, partial curve, poor fit] |
| c1ccc(Nc2cc3c(cn2)CN(Cc2ccsc2)CCN3)cc1 | active: 14.3 µM |
| COCCN1CCNc2cc(-c3cccc(OC)c3)ncc2C1 | active: 20.2 µM |
| NC(=O)COC(=O)c1ccccc1-c1nc2ccccc2s1 | inactive |
| COC(=O)c1ccccc1NC(=O)CCc1c(C)nc2cc(-c3ccc(Cl)cc3)nn2c1C | inconclusive: 9.89 µM [inhibitor, partial curve] |

| Compound | Potency |
| --- | --- |
| Cc1cccc(OCC(=O)Nc2cccc(-c3nc4ccccc4s3)c2)c1 | inconclusive: 6.24 µM [inhibitor, full curve] |
| CC(=O)NCCNC(=O)c1ccc2c(=O)n(CCc3ccccc3)c(=O)[nH]c2c1 | inconclusive: 5.56 µM [inhibitor, full curve, poor fit] |
| COCC(C)Nc1ncnc2c1cnn2-c1cccc(Cl)c1 (stereo not given) | inconclusive: 11.1 µM [inhibitor, partial curve] |
| COc1ccc(CC(=O)Nc2ccc(-c3nc4ccccc4s3)c(C)c2)cc1 | inactive |
| COc1cccc(-c2csc(CN3CCCC(C)(NC(C)=O)C3)c2)c1 (stereo not given) | inconclusive: 20.2 µM [inhibitor, partial curve] |
| CSc1ccc(/C=C/c2nc3ccccc3n2S(=O)(=O)c2ccc(F)c(C)c2)cc1 | active: 0.7 µM |
| Cc1ccc(/C=C/c2nc3ccccc3n2S(=O)(=O)c2ccc(Br)cc2)cc1 | active: 0.624 µM |
| Cc1cn2c(=O)cc(COC(=O)c3ccccc3F)nc2s1 | inconclusive: 6.24 µM [inhibitor, partial curve] |
| COc1ccc(NC(=O)N2CCc3c(C(=O)NCc4ccncc4)cccc32)cc1 | active: 0.624 µM |
| O=C(Nc1ccc(-c2nc3ccccc3s2)c(O)c1)c1ccccc1 | inactive |
| CCCCC(=O)Nc1cccc(-c2nc3ccccc3s2)c1 | inconclusive: 11.1 µM [inhibitor, partial curve] |
| O=C(NCCn1cccc1-c1nc(-c2ccc3c(c2)OCO3)no1)c1ccc(Cl)cc1 | inconclusive: 9.89 µM [inhibitor, partial curve] |
| O=C(O)CCSc1nnc(-c2ccc(Cl)cc2Cl)o1 | active: 0.496 µM |
| O=C(Nc1cccc(-c2ccc(N3CCOCC3)nn2)c1)Nc1cccc(Cl)c1F | active: 5.56 µM |
| COc1cccc2cc(-c3nnc(-c4ccc(Cl)cc4)o3)c(=O)oc12 | inconclusive: 3.51 µM [inhibitor, partial curve, poor fit] |
| O=C(Nc1ccc(F)c(F)c1)C1CCN(C(=O)c2ncn3c2COC(c2ccccc2)C3)CC1 (stereo not given) | active: 0.989 µM |
| Cc1ccc(NC(=O)Nc2ccccc2)c(=O)n1CC(=O)NCC1CCCO1 (stereo not given) | inconclusive: 11.1 µM [inhibitor, partial curve] |
| CCOc1ccc(-n2nc(CO)c(C(=O)NCc3cccc(OC)c3)n2)cc1 | inconclusive: 11.1 µM [inhibitor, partial curve] |
| COc1cc(OC)c(NC(=O)Cn2c(SCc3ccccc3F)nc3cccnc32)cc1Cl | inactive |
| COc1ccc(OCc2cc(C(=O)N3C[C@H]4CC[C@H]3C4)n[nH]2)c(Cl)c1 | inactive |
| Nc1ccc2nc(-c3ccc(O)cc3)sc2c1 | active: 0.624 µM |
| COc1ccc(-c2noc([C@@H]3Cc4nc[nH]c4CN3C(=O)Nc3ccc(Cl)cc3)n2)cc1 | inactive |
